Laboratory results reported in PubChem BioAssay (NCI).
Some structures have more than one record in an assay (separate samples or runs), and their calls can disagree.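 Growth was measured after 48 h exposure to one concentration of compound in 96-well plates. Values under 10 count as active.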 Not every entry of the source has a single result; some have several. This is not the full list of results. The source may hold further records. The screen tested this drug many times, at the concentration stated with the values; each value is one run. Additions like (4×) count equal records among those shown.

Assays:
[1] = test system: OVCAR-8 ovarian; test: NCI-60 one-dose screen, 48 h (100 = growth as untreated, 0 = no growth, -100 = all killed)
[2] = test system: OVCAR-5 ovarian; test: as above; conditions: 0.25 µM; runs of 2006

For `COc1cccc2c1C(=O)c1c(O)c3c(c(O)c1C2=O)C[C@@](O)(C(=O)CO)C[C@@H]3OC1CC(N)C(O)C(C)O1` (some centres not stated), the growth ([1]; 0.25 µM, runs of 2012) was “inactive: 40.7 (2×), 30, 39.3 (2×), 39.5, 39.7 (2×), 37.9, 44.6, 48.1, 46.4, 52.1 (2×), 37.4, 31.7, 34.1, 37.8 (2×), 34.6, 36.8, 38.2, 36.1, 32.5, 32.9, 40.3, 30.4, 47.7, 41.3, 42.3 (2×), 50.8, 52.7, 46.7, 45.3, 44.8, 51.3, 46.9, 43.1, 48.5, 44.3, 41, 44.9, 35.3, 52.3, 32.6, 56.8, 48.4, 46, 49.9 (2×), 50.7, 51.7, 55.3, 54.6, 56.1, 58.6, 68.1, 42.8, 41.7 (2×), 42.4, 55.7, 38.4, 50.3, 42.5, 49.3%”, the growth ([1]; 0.25 µM, runs of 2013) was “inactive: 43.5, 40.6, 42.6 (2×), 46.7, 42.3 (2×), 49.6 (2×), 44.8, 45.9, 52, 47.6 (2×), 29.8, 56.3, 43.7, 56.1 (2×), 62.6, 47.1 (2×), 54.4, 49.9 (2×), 51.7, 55.2, 50.5, 57.8, 44.9, 53.3, 50.7 (3×), 46.5, 50.2, 49.4, 51 (2×), 54.5 (2×), 66.3, 64.1, 48.2, 46.4, 58.7, 50.3, 52.5, 48.8, 49.3, 47.7, 53.5, 49.7, 66, 54.8, 57.6, 64.3, 55.7, 51.4, 33.4, 29.4, 46.3 (2×), 42.4, 55.8, 41.8, 41.7, 43.3, 40.8, 47.5, 39.3%” and the growth ([1]; 0.25 µM, runs of 2014) was “inactive: 54.1, 47.4, 43.8, 49.3 (3×), 41.8, 36.8, 40.7 (2×), 44.4 (2×), 41.3 (3×), 40.8, 56.7, 45.6, 49.7, 56, 51.1 (3×), 55.4, 56.3, 66, 45.3 (3×), 44.9, 36.7 (2×), 47.1 (2×), 45.9, 47.8, 46.5, 39.7, 49.6, 45, 46.4, 48.2, 48.4, 47.6, 48.1, 50.3, 45.4, 44.1 (3×), 38.8, 47, 46.7 (2×), 35.9, 49.2, 33.9, 42.7, 35.2, 38.4, 48.3, 47.9, 40.1, 43.9, 46.1, 47.7, 42.3, 38.1, 41.5, 49.8, 41.6, 41, 36, 37.4%”. For the same compound, the growth ([1]; 0.25 µM, runs of 2015) was “inactive: 44.9, 42.3 (3×), 38.4 (2×), 40.6, 42.6, 51, 46.9, 43.5, 37.9 (2×), 51.9, 56.3, 43.3 (2×), 51.5, 52.7, 52.4, 37.6 (2×), 35.7 (3×), 33.3, 46.4 (2×), 41.3 (2×), 44.8, 40.7, 42.4 (2×), 40.3 (2×), 51.3, 48.3, 41.2 (2×), 41.6, 43.9, 45.5, 45, 46.2, 45.4, 39.9 (2×), 42.5 (2×), 29.2, 40.1, 36.3, 31.5, 35.3, 41.1 (2×), 55.9, 43.7, 30.1, 35.8, 34.6, 38.1, 55.8, 39.4, 33.5, 43.6, 44.6 (2×), 49.7, 35.6, 37.2, 34, 47, 49.2, 47.6, 46.3 (2×), 51.8, 44.7%”, the growth ([1]; 0.25 µM, runs of 2016) was “inactive: 43.3, 39.4, 41.2, 41.3, 47.4, 43.8 (3×), 41.5 (2×), 46.7, 42.9 (2×), 32.3, 47.9, 40.2, 39.9, 41.1, 47.6 (2×), 32.5, 33.3, 38.2, 36.8, 43.5, 39.3, 38.1, 31.9, 35.4, 38.3 (2×), 36.4, 46.5, 37.8, 49.7 (3×), 44.3 (2×), 49.2, 39.2, 45.5, 37.2, 48.1 (2×), 48.2, 46.8, 44.4, 41.7, 48.3, 50, 50.9, 52.3, 55.3, 50.3, 57.6, 55.9, 51.8, 53.2 (2×), 51.2, 51.3, 43.1, 40.8, 39.1, 40.3%” and the growth ([1]; 0.25 µM, runs of 2017) was “inactive: 45.3, 43.6, 51.8, 41.2, 37.7 (2×), 41.1 (2×), 37.5, 41.8, 42.5, 45.6, 45.4 (2×), 39.7, 33.9, 33.3, 34.4 (2×), 35.4 (2×), 39.9 (2×), 44.1, 45.8, 41 (2×), 30.4, 37.6, 38.2 (2×), 39.2 (2×), 39.5, 43.1 (2×), 43.3 (2×), 39.1, 40.1, 37.4 (2×), 43.5, 41.3, 40.7, 36.7, 44.8, 39.3, 34.5, 34, 38.1, 36.9 (3×), 35.2, 42.9, 40.3, 36.1, 36.8 (2×), 40.8, 41.6, 35.1, 42, 42.4, 39.4, 37, 42.6, 36, 39, 36.2, 36.6, 37.3, 35.3%”. For the same compound, the growth ([1]; 0.25 µM, runs of 2018) was “inactive: 36.5, 33.8, 37.5 (2×), 35.5, 35 (2×), 36.7, 34.9, 35.7 (2×), 35.2, 38.1 (2×), 39.4 (3×), 43.3, 33.9, 42.7, 39.5, 39.3, 42 (2×), 41.2, 46.1, 38.3, 40.7, 41.5 (2×), 38.8, 40.3 (2×), 37.6 (2×), 41 (2×), 44.9, 37.8 (2×), 35.8, 41.1, 37.4 (2×), 38.6, 35.6, 38.2, 39.8, 36, 31.2, 29.8%”, the growth ([1]; 0.25 µM, runs of 2019) was “inactive: 30.7, 34.8 (2×), 32.9, 32.8, 33.9, 35.3 (2×), 39.7, 37.1 (2×), 39 (2×), 34.7 (2×), 37.7, 36.2, 36.5, 29.9, 36.6, 40.2 (2×), 43.6, 39.9, 42.9, 47, 42.8 (2×), 34.2, 46.9, 38.8, 40.8, 44.3, 43.3, 43.9, 37.5 (2×), 42.6, 40.3, 45.8, 33, 40.7, 44.9, 43.7, 44.4, 35.6, 36.7, 35.7%” and the growth ([1]; 0.25 µM, runs of 2020) was “inactive: 30.4, 35.7, 39.5, 42.5 (2×), 42.8, 40.1, 41.5, 41.1, 42.4, 38.4, 36.5, 36.7, 43.8, 39.7, 48.8, 40.3, 49.3, 38.6, 40.8, 44.3, 45.3%”. The growth ([1]; 0.25 µM, runs of 2021) was “inactive: 59.6, 58, 45.6, 41.6 (2×), 45, 43.3, 62.6, 61.3, 40.8 (3×), 38.6, 39.2, 50.6, 48.6, 35.6, 38.2, 41.1, 37.1, 38.1, 48.3, 40.7, 55.1, 37.8, 55.4, 54.1, 39.5, 42.3, 41.2, 38.5, 41, 44.4, 41.5, 42.8, 47.8, 47.3, 31.5, 33.4, 39.8, 29.9, 33.8, 37.4, 37.5, 66.6, 42.9, 44.1%”, the growth ([1]; 0.25 µM, runs of 2022) was “active: 6.34%, 9.57% and inactive: 35.4, 36, 13.1, 37.8, 24.8, 34.8, 41.7, 43.6, 32.5, 46.3, 52.6, 39.8, 42, 40.8, 36.5, 63, 77.9, 81.5, 60.1, 75.7, 46.7, 43.1, 48.3, 35.3, 36.1%” and the growth ([1]; 25 µM, runs of 1991) was “active: -27.4, -40.2, 2.96, -1.89, -19, -25.2, 6.28, -32.8, -21.3, -4.56, -32.2, -16.7, -18.4, -5.8, 3.17, -11.9, -17.7, -35.8%”. The growth ([1]; 25 µM, runs of 1992) was “active: -27.3, -7.61, -10.4, -4.79, -9.72, -14.2, -27.6, -14.3 (3×), -49.8, -31.9 (2×), -9.78, -11.2, -8.08, -19.4, -24.8, -22.2, 2.29, -20.8, -34 (2×), -25.8, -7.74, -20.9, -34.5, -15.1, -17.4, -5.07, 0.165, -13.8 (2×), 3.08, -13.2, -13.4, 2.11, 0.5, -10.6, -19.3, 0.594, -21.4, -25.1, -58.2, -18, -2.17, -7.97, -1.33, 3.24, -16.1, -21.1, -26.5, -10.8, -7.68 (2×), -12.1, -18.7, -20.4, -14.9, -7.21, -2.1, -8.27, -22.8 (2×), -30.8, 2.38, -35.9 (2×), -38.8, -33.2, -50.4, -33.3, -27, -46, 1.43, -5.39, -4.58, 0.917, -9.07, -23.8, -2.75, -17.6 (2×), -41.7, -35, -3.44, -33.7, -22.3, -4.15, -13, -13.9, -0.662, -23.5, -25.3, -17.8, 4.39, -27.8, -18.9, -44.5, -26.9, -40.7, -26.3, 2.7, -8.67, -23, 1.41, -40.4, -16.7, -4.57, -11.6, 2.04, -12.3, -32.4, -43.6, -45.3, -3.3, 1, -24.4% and inactive: 87.8%”, the growth ([1]; 25 µM, runs of 1993) was “inactive: 14.8%, 12.1% and active: -28, -26, -31.4, -49.1, 2.57, -16.9, -8.45, -41.8 (2×), -17.3, -17.8, -27.9, -1.18, 4.42, 2.03, -14.7, -22.5, -30.1, -19.1, -61.9, 4.87, 1.25, 6.4, -22.2, -4.41, -0.238, -47.1, 2.99, -18, -28.6, -17.7, -20.1, 3.54, -9.88, -16, -44.6, 2.75, -15.4, 3.87, -50.6, -32.8, 0.172, -45.3, -13.8, 0.163, 3.38%” and the growth ([1]; 25 µM, runs of 1994) was “inactive: 127%, 89%, 13.4% and active: -55.3 (2×), -46.4, -31.6, -36.1, -14.8, -42.8, -6.85, -6.71, -67.1, 1.26, 6.12, -46.2, -6.27, -7.66, -26.5, -27.7, -30.6, -27.6, -41.6, -26.1, 0.658, -41.9, -38.8, -8.49, -11.2, 1.54, 1.38, -48.3, 6.1%”. The growth ([1]; 25 µM, runs of 1995) was “active: -15.8, -21.7, -21, -39.5, -37.4, -9.86, -65.1, -5.16, -12.5, 0.162, 6.67, 0.874, -27.1, -23.8 (2×), -12.7, -14.1, -41.9, -31.1, -37.3, -56.5, -52.5, -28.5, -19.8, -31.8, -4.75, 2.02, -19.4, 2.26, -12.4, -6.85, -36.9, 0.559, 4.4, -30.9, -4.42, -18.3, -10.8% and inactive: 40.2%, 10.2%”, the growth ([1]; 25 µM, runs of 1996) was “active: -11.2, -16.6, -33.2, 5.39 (2×), -8.44, -0.0967, 5.96, 2.28, -22.7, -18.7, 3.43, -4.02, -5.25, -14.2, 4.49, -33.6 (2×), -73.8, 8.6, -28.9, -36.9, -31.6, 0.296, 3.58, -45.1, -29, -28.3, -20.6, -21.2, 2.05, 0.0372, -20.5, -23.3, -60.6, -52.3, -8.9, -54.3, 0.356, -19, -30, -3.89, -6.39, -13.2, -40, -0.815, -15, -10.6, -36.2, 3.51, -55.2, -17.2% and inactive: 98.6, 58.5, 29.6, 11.8, 10.2, 12.8%” and the growth ([1]; 25 µM, runs of 1997) was “inactive: 10.4%, 103%, 17.4% and active: -19.2, 9.04, -24.3, 0.426, -35.1, -10.4, 3.47, -16.5, -24, -25.5, -12.3, -28.2, -31.5, -0.828, 1.86, -23.4, -33.6, -14.8, -18.7, -13.9, 7.34, -23.2, -51.5, -38.2, -0.698, -20.6, -51.7, 3.5, -45.6, -35.4, -32.7, -30.2, -33.2, -59.4, -50, -11.2, -56.1, -42.9, -49.2%”. For the same compound, the growth ([1]; 25 µM, runs of 1998) was “active: -12.7, -52, -11.4, -32.3, 3.72, -37.8, -50.7, -81.5, -36.6, -31.1, 0.248, -3.12, -27.7, -35, -51.6, -57, -65.9, -20.7, 1.07, 8.73, -55.2, -2.14, 2.52% and inactive: 18.4%”, the growth ([1]; 25 µM, runs of 1999) was “active: -41.4, -14.1, -77.9, -12.7, -100 (3×), 1.26, -79.5, 5.18, -29.5, 4.23, -88.8, -57.6, 0.415, -21.2% and inactive: 13.5%” and the growth ([1]; 25 µM, runs of 2000) was “active: -100% (2×), 0.98%, -0.658%”. The growth [2] was “inactive: 45.8%, 65.7%”.
